In patent US20260263442A1, “METHOD FOR TREATING L-DOPA-INDUCED DYSKINESIA USING BEFIRADOL” (Neurolixis, Inc., priority 2023, published 2026):

System: patients with moderate to severe L-DOPA-induced dyskinesia (LID) in Parkinson's disease
Experiment: Adverse events, Phase 2a study of NLX-112 versus placebo

Cc1ccc(CNCC2(F)CCN(C(=O)c3ccc(F)c(Cl)c3)CC2)nc1 [NLX-112]
Number of adverse events per patient, higher than placebo group by (71/18 vs 32/9): about 11%
Proportion of patients experiencing an adverse event, higher than placebo group by (89% vs 78%): 11%
AE action taken with study drug: Dose Not Changed, events m (Full analysis set, N = 18): 46
AE action taken with study drug: Dose Not Changed, subjects n (%) (Full analysis set, N = 18): 12 (67%) n (%)
AE action taken with study drug: Dose Reduced, events m (Full analysis set, N = 18): 14
AE action taken with study drug: Dose Reduced, subjects n (%) (Full analysis set, N = 18): 4 (22%) n (%)
AE action taken with study drug: Drug Interrupted, events m (Full analysis set, N = 18): 0
AE action taken with study drug: Drug Interrupted, subjects n (%) (Full analysis set, N = 18): 0 n (%)
AE action taken with study drug: Not Applicable, events m (Full analysis set, N = 18): 11
AE action taken with study drug: Not Applicable, subjects n (%) (Full analysis set, N = 18): 5 (28%) n (%)
AE causality: Possibly Related, events m (Full analysis set, N = 18): 43
AE causality: Possibly Related, subjects n (%) (Full analysis set, N = 18): 15 (83%) n (%)
AE causality: Probably Related, events m (Full analysis set, N = 18): 4
AE causality: Probably Related, subjects n (%) (Full analysis set, N = 18): 3 (17%) n (%)
AE causality: Unlikely Related, events m (Full analysis set, N = 18): 24
AE causality: Unlikely Related, subjects n (%) (Full analysis set, N = 18): 11 (61%) n (%)
AE severity: Death, events m (Full analysis set, N = 18): 0
AE severity: Death, subjects n (%) (Full analysis set, N = 18): 0 n (%)
AE severity: Life-Threatening, events m (Full analysis set, N = 18): 0
AE severity: Life-Threatening, subjects n (%) (Full analysis set, N = 18): 0 n (%)
AE severity: Mild, events m (Full analysis set, N = 18): 45
AE severity: Mild, subjects n (%) (Full analysis set, N = 18): 14 (78%) n (%)
AE severity: Moderate, events m (Full analysis set, N = 18): 26
AE severity: Moderate, subjects n (%) (Full analysis set, N = 18): 10 (56%) n (%)
AE severity: Severe, events m (Full analysis set, N = 18): 0
AE severity: Severe, subjects n (%) (Full analysis set, N = 18): 0 n (%)
Alopecia, events m (Full analysis set, N = 18): 0
Alopecia, subjects n (%) (Full analysis set, N = 18): 0 n (%)
Any AE leading to death, events m (Full analysis set, N = 18): 0
Any AE leading to death, subjects n (%) (Full analysis set, N = 18): 0 n (%)
Any AE leading to withdrawal from study, events m (Full analysis set, N = 18): 3
Any AE leading to withdrawal from study, subjects n (%) (Full analysis set, N = 18): 1 (5.6%) n (%)
Any AE, events m (Full analysis set, N = 18): 71
Any AE, subjects n (%) (Full analysis set, N = 18): 16 (89%) n (%)
Any SAE, events m (Full analysis set, N = 18): 0
Any SAE, subjects n (%) (Full analysis set, N = 18): 0 n (%)
Apathy, events m (Full analysis set, N = 18): 1
Apathy, subjects n (%) (Full analysis set, N = 18): 1 (5.6%) n (%)
Arthralgia, events m (Full analysis set, N = 18): 1
Arthralgia, subjects n (%) (Full analysis set, N = 18): 1 (5.6%) n (%)
Back pain, events m (Full analysis set, N = 18): 2
Back pain, subjects n (%) (Full analysis set, N = 18): 2 (11%) n (%)
Binocular eye movement disorder, events m (Full analysis set, N = 18): 1
Binocular eye movement disorder, subjects n (%) (Full analysis set, N = 18): 1 (5.6%) n (%)
COVID-19, events m (Full analysis set, N = 18): 0
COVID-19, subjects n (%) (Full analysis set, N = 18): 0 n (%)
Cardiac disorders (system organ class), events m (Full analysis set, N = 18): 1
Cardiac disorders (system organ class), subjects n (%) (Full analysis set, N = 18): 1 (5.6%) n (%)
Cataract operation, events m (Full analysis set, N = 18): 2
Cataract operation, subjects n (%) (Full analysis set, N = 18): 1 (5.6%) n (%)
Condition aggravated, events m (Full analysis set, N = 18): 1
Condition aggravated, subjects n (%) (Full analysis set, N = 18): 1 (5.6%) n (%)
Depression, events m (Full analysis set, N = 18): 0
Depression, subjects n (%) (Full analysis set, N = 18): 0 n (%)
Diarrhoea, events m (Full analysis set, N = 18): 1
Diarrhoea, subjects n (%) (Full analysis set, N = 18): 1 (5.6%) n (%)
Dissociation, events m (Full analysis set, N = 18): 2
Dissociation, subjects n (%) (Full analysis set, N = 18): 2 (11%) n (%)
Dizziness, events m (Full analysis set, N = 18): 2
Dizziness, subjects n (%) (Full analysis set, N = 18): 2 (11%) n (%)
Dry eye, events m (Full analysis set, N = 18): 0
Dry eye, subjects n (%) (Full analysis set, N = 18): 0 n (%)
Dry mouth, events m (Full analysis set, N = 18): 1
Dry mouth, subjects n (%) (Full analysis set, N = 18): 1 (5.6%) n (%)
Dyskinesia, events m (Full analysis set, N = 18): 2
Dyskinesia, subjects n (%) (Full analysis set, N = 18): 2 (11%) n (%)
Ear and labyrinth disorders (system organ class), events m (Full analysis set, N = 18): 3
Ear and labyrinth disorders (system organ class), subjects n (%) (Full analysis set, N = 18): 2 (11%) n (%)
Erythema of eyelid, events m (Full analysis set, N = 18): 1
Erythema of eyelid, subjects n (%) (Full analysis set, N = 18): 1 (5.6%) n (%)
Eye disorders (system organ class), events m (Full analysis set, N = 18): 3
Eye disorders (system organ class), subjects n (%) (Full analysis set, N = 18): 2 (11%) n (%)
Eye pain, events m (Full analysis set, N = 18): 0
Eye pain, subjects n (%) (Full analysis set, N = 18): 0 n (%)
Fall, events m (Full analysis set, N = 18): 3
Fall, subjects n (%) (Full analysis set, N = 18): 2 (11%) n (%)
Fatigue, events m (Full analysis set, N = 18): 2
Fatigue, subjects n (%) (Full analysis set, N = 18): 2 (11%) n (%)
Gastritis, events m (Full analysis set, N = 18): 1
Gastritis, subjects n (%) (Full analysis set, N = 18): 1 (5.6%) n (%)
Gastrointestinal disorders (system organ class), events m (Full analysis set, N = 18): 10
Gastrointestinal disorders (system organ class), subjects n (%) (Full analysis set, N = 18): 7 (39%) n (%)
General disorders and administration site conditions (system organ class), events m (Full analysis set, N = 18): 3
General disorders and administration site conditions (system organ class), subjects n (%) (Full analysis set, N = 18): 3 (17%) n (%)
Hallucination, events m (Full analysis set, N = 18): 1
Hallucination, subjects n (%) (Full analysis set, N = 18): 1 (5.6%) n (%)
Headache, events m (Full analysis set, N = 18): 4
Headache, subjects n (%) (Full analysis set, N = 18): 3 (17%) n (%)
Hyperglycaemia, events m (Full analysis set, N = 18): 1
Hyperglycaemia, subjects n (%) (Full analysis set, N = 18): 1 (5.6%) n (%)
Hypertension, events m (Full analysis set, N = 18): 0
Hypertension, subjects n (%) (Full analysis set, N = 18): 0 n (%)
Illusion, events m (Full analysis set, N = 18): 0
Illusion, subjects n (%) (Full analysis set, N = 18): 0 n (%)
Incorrect dose administered, events m (Full analysis set, N = 18): 1
Incorrect dose administered, subjects n (%) (Full analysis set, N = 18): 1 (5.6%) n (%)
Inflammatory marker increased, events m (Full analysis set, N = 18): 1
Inflammatory marker increased, subjects n (%) (Full analysis set, N = 18): 1 (5.6%) n (%)
Influenza, events m (Full analysis set, N = 18): 1
Influenza, subjects n (%) (Full analysis set, N = 18): 1 (5.6%) n (%)
Injury, poisoning and procedural complications (system organ class), events m (Full analysis set, N = 18): 6
Injury, poisoning and procedural complications (system organ class), subjects n (%) (Full analysis set, N = 18): 3 (17%) n (%)
Insomnia, events m (Full analysis set, N = 18): 2
Insomnia, subjects n (%) (Full analysis set, N = 18): 2 (11%) n (%)
